Source: publication PMC9290910, “Neuropilin‐1 is required for endothelial cell adhesion to soluble vascular endothelial growth factor receptor 1” (The Febs Journal, 2021)

Target: T1, Purified α5β1 integrin (UniProt P08648 42-1049; P05556)
T1 construct: integrin alpha-5 subunit; integrin beta-1 subunit; As far as I recall this product is purified from human tissue; also called integrin α5β1; source: bought: Merck Millipore (CC1052), purified, octyl‐β‐D‐glucopyranoside formulation
Assay: SPR; BIACORE X, CM5; NRP-1 immobilised by amine coupling; analyte in HEPES-buffered saline (10 mM HEPES pH 7.4, 150 mM NaCl, 0.005% P20); global 1:1 Langmuir fit
Conditions: both partners purified

- Kd: 14 ± 4 nM
- koff: 0.00029 s⁻¹
- kon: 21000 M⁻¹ s⁻¹
B1: Recombinant human NRP‐1 (receptor)
chain: not shown
notes: Neuropilin-1, human, recombinant soluble protein; see the vendor's datasheet (as far as I recall an extracellular fragment with a C-terminal His tag); also called Neuropilin‐1; soluble NRP‐1; source: bought: R&D Systems (3870‐N1)
